# Some of the results follow.
# Experiments:
# Assay in all cases: glycan array binding signal (z-score within array); higher = stronger binding
# Conditions in all cases: glycan notation: IUPAC condensed, linker removed
# GalNAc(b1-3)GalNAc = target: GalNAc(b1-3)GalNAc
# Summary of the method: (§1)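 The binding signal is a Z-score computed within each array. Data were drawn from 3228 arrays in the Consortium for Functional Glycomics database, restricted to those with a known protein sequence. Scores were averaged over arrays of the same protein sequence at different concentrations or buffers, and over linkers, and negative values can be taken as non-binding.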
# GalNAc(b1-4)GlcNAc = target: GalNAc(b1-4)GlcNAc
# Summary of the method: as §1
# Glc(a1-4)Glc = target: Glc(a1-4)Glc
# Summary of the method: as §1
# Glc(b1-4)Glc = target: Glc(b1-4)Glc
# Summary of the method: as §1
# Glc(b1-6)Glc = target: Glc(b1-6)Glc
# Summary of the method: as §1
# [1] = target: GlcNAc(b1-2)Gal(b1-3)GalNAc
# Summary of the method: as §1
# GlcNAc(b1-3)Gal = target: GlcNAc(b1-3)Gal
# Summary of the method: as §1
# [2] = target: GlcNAc(b1-3)Gal(b1-3)GalNAc
# Summary of the method: as §1
# GlcNAc(b1-3)Gal(b1-4)Glc = target: GlcNAc(b1-3)Gal(b1-4)Glc
# Summary of the method: as §1
# [3] = target: GlcNAc(b1-3)Gal(b1-4)GlcNAc
# Summary of the method: as §1
# [4] = target: GlcNAc(b1-3)[GlcNAc(b1-6)]GalNAc
# Summary of the method: as §1
# [5] = target: GlcNAc(b1-3)[GlcNAc(b1-6)]GlcNAc(b1-4)GlcNAc
# Summary of the method: as §1
# [6] = target: GlcNAc(b1-4)GlcNAc(b1-4)GlcNAc
# Summary of the method: as §1
# [7] = target: GlcNAc(b1-4)[GlcNAc(b1-6)]GalNAc
# Summary of the method: as §1
# GlcNAc(b1-6)GalNAc = target: GlcNAc(b1-6)GalNAc
# Summary of the method: as §1
# Kdn(a2-3)Gal(b1-3)GlcNAc = target: Kdn(a2-3)Gal(b1-3)GlcNAc
# Summary of the method: as §1
# Kdn(a2-3)Gal(b1-4)GlcNAc = target: Kdn(a2-3)Gal(b1-4)GlcNAc
# Summary of the method: as §1
# [8] = target: Man(a1-2)Man(a1-2)Man(a1-3)Man
# Summary of the method: as §1
# [9] = target: Man(a1-2)Man(a1-2)Man(a1-6)[Man(a1-3)]Man
# Summary of the method: as §1
# Man(a1-2)Man(a1-3)Man = target: Man(a1-2)Man(a1-3)Man
# Summary of the method: as §1
# [10] = target: Man(a1-2)Man(a1-3)[Man(a1-2)Man(a1-6)]Man
# Summary of the method: as §1
# [11] = target: Man(a1-2)Man(a1-3)[Man(a1-2)Man(a1-6)]Man(a1-6)[Man(a1-2)Man(a1-2)Man(a1-3)]Man(b1-4)GlcNAc(b1-4)GlcNAc
# Summary of the method: as §1
# [12] = target: Man(a1-2)Man(a1-3)[Man(a1-2)Man(a1-6)]Man(a1-6)[Man(a1-3)[Man(a1-6)]Man(a1-6)]Man(b1-4)GlcNAc(b1-4)GlcNAc
# Summary of the method: as §1
# [13] = target: Man(a1-2)Man(a1-3)[Man(a1-6)]Man(a1-6)[Man(a1-2)Man(a1-3)]Man(b1-4)GlcNAc(b1-4)GlcNAc
# Summary of the method: as §1
# [14] = target: Man(a1-2)Man(a1-6)[Man(a1-3)]Man(a1-6)[Man(a1-2)Man(a1-2)Man(a1-3)]Man(b1-4)GlcNAc(b1-4)GlcNAc
# Summary of the method: as §1
# Man(a1-3)[Man(a1-6)]Man = target: Man(a1-3)[Man(a1-6)]Man
# Summary of the method: as §1
# [15] = target: Man(a1-3)[Man(a1-6)]Man(a1-6)[Man(a1-3)]Man(b1-4)GlcNAc(b1-4)GlcNAc
# Summary of the method: as §1
# Neu5Ac(a2-3)Gal = target: Neu5Ac(a2-3)Gal
# Summary of the method: as §1
# [16] = target: Neu5Ac(a2-3)Gal(b1-3)GalNAc
# Summary of the method: as §1
# [17] = target: Neu5Ac(a2-3)Gal(b1-3)GalNAc6S
# Summary of the method: as §1
# [18] = target: Neu5Ac(a2-3)Gal(b1-3)GlcNAc
# Summary of the method: as §1
# [19] = target: Neu5Ac(a2-3)Gal(b1-3)[Fuc(a1-4)]GlcNAc
# Summary of the method: as §1
# [20] = target: Neu5Ac(a2-3)Gal(b1-3)[Neu5Ac(a2-3)Gal(b1-4)]GlcNAc
# Summary of the method: as §1
# [21] = target: Neu5Ac(a2-3)Gal(b1-3)[Neu5Ac(a2-6)]GalNAc
# Summary of the method: as §1
# Neu5Ac(a2-3)Gal(b1-4)Glc = target: Neu5Ac(a2-3)Gal(b1-4)Glc
# Summary of the method: as §1
# [22] = target: Neu5Ac(a2-3)Gal(b1-4)GlcNAc
# Summary of the method: as §1
binder,measurement,setting,value
"Hip/Pap (Homo sapiens), Q06141 (protein) MLPPMALPSVSWMLLSCLMLLSQVQGEEPQRELPSARIRCPKGSKAYGSHCYALFLSPKSWTDADLACQKRPSGNLVSVLSGAEGSFVSSLVKSIGNSYSYVWIGLHDPTQGTEPNGEGWEWSSSDVMNYFAWERNPSTISSPGHCASLSRSTAFLRWKDYNCNVRLPYVCKFTD",glycan array binding signal (z-score),GalNAc(b1-3)GalNAc,-0.135
same,glycan array binding signal (z-score),GalNAc(b1-4)GlcNAc,-0.094
same,glycan array binding signal (z-score),Glc(a1-4)Glc,0.806
same,glycan array binding signal (z-score),Glc(b1-4)Glc,-0.182
same,glycan array binding signal (z-score),Glc(b1-6)Glc,0.091
same,glycan array binding signal (z-score),[1],-0.099
same,glycan array binding signal (z-score),GlcNAc(b1-3)Gal,0.046
same,glycan array binding signal (z-score),[2],-0.057
same,glycan array binding signal (z-score),GlcNAc(b1-3)Gal(b1-4)Glc,-0.125
same,glycan array binding signal (z-score),[3],-0.105
same,glycan array binding signal (z-score),[4],0.063
same,glycan array binding signal (z-score),[5],0.29
same,glycan array binding signal (z-score),[6],-0.149
same,glycan array binding signal (z-score),[7],0.084
same,glycan array binding signal (z-score),GlcNAc(b1-6)GalNAc,0.032
same,glycan array binding signal (z-score),Kdn(a2-3)Gal(b1-3)GlcNAc,-0.166
same,glycan array binding signal (z-score),Kdn(a2-3)Gal(b1-4)GlcNAc,-0.184
same,glycan array binding signal (z-score),[8],0.366
same,glycan array binding signal (z-score),[9],0.386
same,glycan array binding signal (z-score),Man(a1-2)Man(a1-3)Man,-0.027
same,glycan array binding signal (z-score),[10],0.58
same,glycan array binding signal (z-score),[11],-0.051
same,glycan array binding signal (z-score),[12],-0.059
same,glycan array binding signal (z-score),[13],-0.033
same,glycan array binding signal (z-score),[14],0.171
same,glycan array binding signal (z-score),Man(a1-3)[Man(a1-6)]Man,0.151
same,glycan array binding signal (z-score),[15],-0.183
same,glycan array binding signal (z-score),Neu5Ac(a2-3)Gal,-0.153
same,glycan array binding signal (z-score),[16],-0.18
same,glycan array binding signal (z-score),[17],-0.172
same,glycan array binding signal (z-score),[18],-0.171
same,glycan array binding signal (z-score),[19],-0.166
same,glycan array binding signal (z-score),[20],0.71
same,glycan array binding signal (z-score),[21],-0.181
same,glycan array binding signal (z-score),Neu5Ac(a2-3)Gal(b1-4)Glc,-0.174
same,glycan array binding signal (z-score),[22],-0.068

# From the supplement of paper PMC8728848
